Measurements from the supplement of paper PMC3334620.
Whole data set: some 33,000 sequences, median “E-score (-0.5 to 0.5)” near -0.016, cut for the highest 2% near 0.31. Some of the results follow.

The sequences below were run against Cst6 (UniProt P40535) (assay: PBM E-score (8-mer binding enrichment) (E-score (-0.5 to 0.5)); higher = stronger / more preferred TF binding; most listed sequences are background and not binding sites). Conditions: protein concentration: 200 nM; construct: GST-DNA-binding domain.
In short: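 Universal all-10-mer Agilent arrays, fresh or stripped once, were converted to double-stranded form by primer extension. GST-tagged yeast transcription factors from PURExpress in vitro transcription/translation, full-length or DNA-binding domain only, were applied at about 100-200 nM and detected with fluorescent anti-GST. After masliner normalisation, the Universal PBM Analysis Suite scored each ungapped eight-base word together with its reverse complement by E-score.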
For ACCGAACT, the “PBM E-score” value was -0.0144.
AGCACAAC was tested, and the “PBM E-score” value was 0.0921.
With AAGGCTGA the “PBM E-score” value was -0.0825.
With AAATTGTG the “PBM E-score” value was 0.021.
AAGAACAC was tested, and the “PBM E-score” value was 0.167.
With CAGTGCAC the “PBM E-score” value was -0.228.
For ACCTGACC, the “PBM E-score” value was 0.0327.
AAAAACAC was tested, and the “PBM E-score” value was 0.112.
For GACCCCAC, the “PBM E-score” value was -0.0913.
For ATACTTTG, the “PBM E-score” value was 0.125.
GGTCGTGA was tested, and the “PBM E-score” value was -0.0244.
GAGAACCC was tested, and the “PBM E-score” value was -0.32.
For TCAATGGA, the “PBM E-score” value was 0.0863.
CTCTTATA was tested, and the “PBM E-score” value was 0.163.
AGATGCAG was tested, and the “PBM E-score” value was -0.0156.
With AATTATCT the “PBM E-score” value was 0.161.
In the case of TCCCCAAA, the “PBM E-score” value is reported as 0.119.
For CGATTGTC, the “PBM E-score” value was 0.104.
With CAAAAGCC the “PBM E-score” value was -0.0487.
For CTGATCGA, the “PBM E-score” value was -0.0169.
AATACAGC was tested, and the “PBM E-score” value was 0.0457.
With ACTTCATC the “PBM E-score” value was 0.101.
In the case of GAAGGTAC, the “PBM E-score” value is reported as -0.0696.
For AGGTCGTG, the “PBM E-score” value was -0.0748.
In the case of CCGCGGCG, the “PBM E-score” value is reported as 0.156.
CCAGTGAA was tested, and the “PBM E-score” value was -0.0258.
For GACGCCTA, the “PBM E-score” value was -0.177.
For CAAGACCC, the “PBM E-score” value was -0.197.
In the case of AAGACTCG, the “PBM E-score” value is reported as -0.0622.
With CAGCGCAG the “PBM E-score” value was -0.102.
With CACGCTGA the “PBM E-score” value was 0.133.
For CAATGATA, the “PBM E-score” value was 0.268.
With ATTCTTCG the “PBM E-score” value was 0.156.
GAGGCCAC was tested, and the “PBM E-score” value was -0.164.
For CGTGATAA, the “PBM E-score” value was 0.154.
In the case of AGTTCACC, the “PBM E-score” value is reported as 0.0267.
GTTTGGTA was tested, and the “PBM E-score” value was 0.213.
CCTCACAG was tested, and the “PBM E-score” value was -0.0712.
AAAGCCTT was tested, and the “PBM E-score” value was -0.0208.
CTGCATAA was tested, and the “PBM E-score” value was 0.0964.
With AGGTAATA the “PBM E-score” value was 0.273.
With GTGGCCCA the “PBM E-score” value was -0.236.
In the case of ATCCCTCG, the “PBM E-score” value is reported as -0.263.
With AGGCCACA the “PBM E-score” value was -0.183.
For CCGCCCCG, the “PBM E-score” value was 0.0604.
In the case of ATAAAATA, the “PBM E-score” value is reported as 0.286.
In the case of AAACGTCC, the “PBM E-score” value is reported as -0.0706.
GTGTTCGA was tested, and the “PBM E-score” value was 0.00046.
For CGTTTTCA, the “PBM E-score” value was 0.225.
For AATCTCAG, the “PBM E-score” value was -0.111.
With GCTTCACA the “PBM E-score” value was -0.177.
For ACTTCTTG, the “PBM E-score” value was 0.0136.
For ATTATGAA, the “PBM E-score” value was 0.292.
In the case of AGTCGCAT, the “PBM E-score” value is reported as -0.106.
GCTCAAAC was tested, and the “PBM E-score” value was 0.0496.
In the case of GCGAGCAC, the “PBM E-score” value is reported as -0.268.
In the case of GATGTCGC, the “PBM E-score” value is reported as -0.0961.
With GATTGGGA the “PBM E-score” value was -0.139.
For CTCATACC, the “PBM E-score” value was 0.118.
In the case of CGCTAGTA, the “PBM E-score” value is reported as -0.0677.
With CTGGTGGC the “PBM E-score” value was -0.0998.
With CCAGTACA the “PBM E-score” value was -0.058.
In the case of AATTGGCA, the “PBM E-score” value is reported as 0.0554.
AGGGGTTC was tested, and the “PBM E-score” value was -0.327.
For ATCTTGAC, the “PBM E-score” value was 0.0907.
For GGTCCAGA, the “PBM E-score” value was -0.111.
For CGTGAATC, the “PBM E-score” value was -0.01.
With AGGTGGAC the “PBM E-score” value was -0.235.
With GTTCCGCA the “PBM E-score” value was -0.0152.
For GAACGGTA, the “PBM E-score” value was -0.00045.
With AACGTACG the “PBM E-score” value was 0.00342.
ACTGCCTG was tested, and the “PBM E-score” value was -0.00529.
In the case of ACGTGAAT, the “PBM E-score” value is reported as 0.124.
With CGTCTACC the “PBM E-score” value was -0.0234.
In the case of GCGGCTAC, the “PBM E-score” value is reported as 0.0691.
In the case of AAGTAGAT, the “PBM E-score” value is reported as 0.0462.
In the case of ACGATGCG, the “PBM E-score” value is reported as 0.118.
With CGCTCACG the “PBM E-score” value was 0.0482.
In the case of ATTTTGCA, the “PBM E-score” value is reported as 0.11.
With GACCGGCC the “PBM E-score” value was -0.202.
With AGCCGTAT the “PBM E-score” value was 0.169.
CCAGTGCC was tested, and the “PBM E-score” value was -0.0416.
With ACGCAGCC the “PBM E-score” value was -0.0579.
In the case of AAATTAGT, the “PBM E-score” value is reported as 0.29.
For AAAAGCCG, the “PBM E-score” value was 0.0736.
For CCGCGCAC, the “PBM E-score” value was -0.0524.
AATCAAAA was tested, and the “PBM E-score” value was 0.125.
In the case of CCCGCCGG, the “PBM E-score” value is reported as -0.269.
CAATTAAC was tested, and the “PBM E-score” value was 0.166.
In the case of ACGTAGTC, the “PBM E-score” value is reported as 0.075.
GAGGCAGA was tested, and the “PBM E-score” value was -0.122.
For AACATTTA, the “PBM E-score” value was 0.155.
For AGCCATGA, the “PBM E-score” value was 0.0578.
For GGGAGCCC, the “PBM E-score” value was -0.386.
CTGTTGTA was tested, and the “PBM E-score” value was 0.0968.
For AAAGAACA, the “PBM E-score” value was 0.171.
For TAACTTCA, the “PBM E-score” value was 0.162.
CAGATTAG was tested, and the “PBM E-score” value was -0.133.
GACAACAA was tested, and the “PBM E-score” value was 0.204.
With AGAGATAT the “PBM E-score” value was -0.00058.
For GAGTGCAC, the “PBM E-score” value was -0.13.
With AATTTTCC the “PBM E-score” value was 0.104.
For AGTGAAGA, the “PBM E-score” value was -0.173.
With AGCGGAAG the “PBM E-score” value was -0.0688.
With CGGGAAAA the “PBM E-score” value was -0.0839.
For CCTATAAA, the “PBM E-score” value was -0.00874.
GCCGGCGA was tested, and the “PBM E-score” value was -0.299.
AAGAGTGG was tested, and the “PBM E-score” value was -0.279.
GATCCCCC was tested, and the “PBM E-score” value was -0.411.
In the case of GGAACCAA, the “PBM E-score” value is reported as -0.125.
GGATACTA was tested, and the “PBM E-score” value was 0.0713.
ACACAGGC was tested, and the “PBM E-score” value was 0.0379.
In the case of GAACGTTA, the “PBM E-score” value is reported as -0.124.
With TAACGCAA the “PBM E-score” value was 0.255.
In the case of CCGCGTAG, the “PBM E-score” value is reported as 0.0312.
With GCTAAGCC the “PBM E-score” value was -0.174.
With GTGCCATA the “PBM E-score” value was 0.00902.
For GATGATGC, the “PBM E-score” value was 0.328.
In the case of CCGTCCAG, the “PBM E-score” value is reported as -0.0988.
CGCAACAC was tested, and the “PBM E-score” value was 0.0161.
With GCGCAACC the “PBM E-score” value was -0.233.
In the case of CTCCCCAA, the “PBM E-score” value is reported as -0.139.
In the case of AATTATTA, the “PBM E-score” value is reported as 0.321.
For CTCCTCAA, the “PBM E-score” value was -0.28.
CGCTAGCC was tested, and the “PBM E-score” value was -0.271.
GTTCCCAA was tested, and the “PBM E-score” value was -0.206.
CCGATATA was tested, and the “PBM E-score” value was -0.0171.
For ACGTCTAA, the “PBM E-score” value was 0.0702.
With CCTTTTCG the “PBM E-score” value was 0.021.
With ATCTAAAG the “PBM E-score” value was -0.00075.
With CCGTTCAG the “PBM E-score” value was -0.073.
With AGTTGCCG the “PBM E-score” value was 0.0837.
With CTTAGGCC the “PBM E-score” value was -0.185.
With CACGGTAA the “PBM E-score” value was 0.0352.
For GGTCTAGA, the “PBM E-score” value was -0.167.
For CATTACGG, the “PBM E-score” value was 0.168.
With GCGCATAC the “PBM E-score” value was -0.0378.
For TATTAGCA, the “PBM E-score” value was 0.0328.
For CCGTAGGC, the “PBM E-score” value was -0.116.
With GACAGCCC the “PBM E-score” value was -0.272.
For ACATGCAC, the “PBM E-score” value was 0.0295.
With GGATAGTA the “PBM E-score” value was 0.0601.
CTGATTAC was tested, and the “PBM E-score” value was 0.239.
For GTCACCGA, the “PBM E-score” value was 0.426.
With CTCGACAC the “PBM E-score” value was 0.0158.
With CTAGGGAA the “PBM E-score” value was -0.11.
For CTATTGGA, the “PBM E-score” value was 0.0987.
For CACATGTA, the “PBM E-score” value was 0.00769.
CCCAGTTA was tested, and the “PBM E-score” value was -0.28.
For ACCGCCCG, the “PBM E-score” value was -0.3.
For CTGTATTA, the “PBM E-score” value was 0.106.
AGTCTCAT was tested, and the “PBM E-score” value was -0.217.
For CGTTGGTA, the “PBM E-score” value was 0.0178.
In the case of GACTTTGA, the “PBM E-score” value is reported as 0.0418.
With CCCAGTGA the “PBM E-score” value was -0.133.
With ATAATATC the “PBM E-score” value was 0.219.
In the case of AAGTCGGG, the “PBM E-score” value is reported as -0.208.
For AAACGCAA, the “PBM E-score” value was 0.254.
GTGCTCGA was tested, and the “PBM E-score” value was -0.121.
For GTGTGGTA, the “PBM E-score” value was 0.0556.
CGCAATAC was tested, and the “PBM E-score” value was 0.165.
In the case of GAGCATCC, the “PBM E-score” value is reported as -0.272.
With AGTGCAAC the “PBM E-score” value was -0.209.
For GCCAAATA, the “PBM E-score” value was 0.0707.
In the case of GTGGTGCA, the “PBM E-score” value is reported as -0.132.
In the case of GCCGATCC, the “PBM E-score” value is reported as -0.132.
In the case of CCATCTGC, the “PBM E-score” value is reported as -0.0385.
AACCAGAC was tested, and the “PBM E-score” value was -0.0583.
GGTCGATA was tested, and the “PBM E-score” value was -0.0752.
CGACTCCA was tested, and the “PBM E-score” value was -0.279.
With GAGATGAC the “PBM E-score” value was 0.239.
CCCCATCG was tested, and the “PBM E-score” value was -0.139.
